Biological target: the molecule itself
Test: crystal structure

B1: Hfq65 (Escherichia coli Hfq, […], Sm fold) (domain or fragment)
chain: not shown
stoichiometry N: 6
